The labels stand for the following.
B1: glmS ribozyme (parent)
chain: AUAAAAGCGCCAGAACUACAGAAAUGUAGUUGACGAGGAGGAGGUUUAUCGAAUUUUCGGCGGAUGCCUCCAAA

Conditions in all cases: with glucosamine-6-phosphate
Variants of B1 are the subject of data set [1]. The data set is described as follows: self-cleavage kobs at 40 uM GlcN6P; higher = faster cleavage; RNA array. The procedure, abridged:
(§1)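 Weighted Michaelis–Menten fits across concentrations supplied kcat and KM, based on kobs from one- or two-exponential decay fits to normalised per-tile medians. The data came from barcoded ribozyme variants transcribed in situ by E. coli RNA polymerase on sequenced MiSeq chips and tracked at 37 °C by a hybridised Cy3 probe. Glucosamine-6-phosphate (40 μM to 10 mM) in HEPES/KCl/Mg(OAc)2 buffer was flowed in.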

In data set [2] the parent is B1. The data set is described as follows: self-cleavage kobs at 640 uM GlcN6P; higher = faster cleavage; RNA array. The procedure, abridged:
as §1

The variants in data set [3] derive from B1. The data set is described as follows: self-cleavage kobs at 160 uM GlcN6P; higher = faster cleavage; RNA array. A digest of the protocol:
as §1

The variants in data set [4] derive from B1. The data set is described as follows: self-cleavage kobs at 2500 uM GlcN6P; higher = faster cleavage; RNA array. The procedure, abridged: as §1
Variants of B1 are the subject of data set [5]. The experiment in a line: self-cleavage kobs at 10000 uM GlcN6P; higher = faster cleavage; RNA array. A digest of the protocol:
as §1

± gives the standard error. For part of these data: Variants at the background level are over-represented here.

On to AUAAAAGCGCCAGAAGUACAGAAAUGUAGUUGACGAGCAGGGGGUUUAUCGCAUUUUCGGCGGAUGCCUCCAAA, for which the “self-cleavage kobs at 40 uM GlcN6P” value in data set [1] was below 1e-05 s⁻¹.
As for AUAAAAGCGCCAGAAUUACAGAAAUGUAGUUGACGAGGAAGAGGUUUAUCGAAUUUUCGGCGGAUGCCUCCAAA, the “self-cleavage kobs at 40 uM GlcN6P” value in data set [1] was determined as 0.000204 ± 2e-05 s⁻¹. Besides, the “self-cleavage kobs at 640 uM GlcN6P” value in data set [2] is 0.000996 ± 0.00017 s⁻¹. Further, in data set [3], the “self-cleavage kobs at 160 uM GlcN6P” value turned out to be 0.000448 ± 7e-05 s⁻¹. Moreover, the “self-cleavage kobs at 2500 uM GlcN6P” value in data set [4] is 0.00398 ± 0.00098 s⁻¹. In addition, the “self-cleavage kobs at 10000 uM GlcN6P” value in data set [5] was 0.00622 ± 0.00083 s⁻¹.
AUAAAAGCGCCAGAAUUACAGAAAUGUAGUUGACGAGGAGGAGGUUUAUGGAAUUUUCGGCAGAUGGCUCCAAA: the “self-cleavage kobs at 40 uM GlcN6P” value in data set [1] was found to be 6.99e-05 ± 1.9e-05 s⁻¹. In addition, the “self-cleavage kobs at 640 uM GlcN6P” value in data set [2] stood at 0.000337 ± 7.8e-05 s⁻¹. In addition, in data set [5], the “self-cleavage kobs at 10000 uM GlcN6P” value was determined as 9.28e-05 ± 1.6e-05 s⁻¹.
Turning to AUAAAAGCGCCAGAAGUACAGAAAUGUAGUUGACGAGGAGGAGGUUUAUCGAAGUUUCGGCGGAUGCCUCCAAA, in data set [1], the “self-cleavage kobs at 40 uM GlcN6P” value was 0.000177 ± 3.8e-05 s⁻¹. Moreover, the “self-cleavage kobs at 640 uM GlcN6P” value in data set [2] came to 0.00211 ± 0.0008 s⁻¹. For the same variant, the “self-cleavage kobs at 160 uM GlcN6P” value in data set [3] is 0.000312 ± 6.7e-05 s⁻¹. Besides, in data set [4], the “self-cleavage kobs at 2500 uM GlcN6P” value came to 0.00175 ± 0.0004 s⁻¹. Further, in data set [5], the “self-cleavage kobs at 10000 uM GlcN6P” value worked out at 0.00291 ± 0.00046 s⁻¹.
As to AUAAAAGCGCCAGAAGUACAGAAAUGUAGCUGACGAGGAGGAGGUUUAUCGAAUUUUCGGCGGUUGCCUCCAAA, the “self-cleavage kobs at 40 uM GlcN6P” value in data set [1] is below 1e-05 s⁻¹.
Consider AUAAAAGCGCCAGAAUUACAGAAAUGUAGUUGACGAGGAGGAGGUUUAUCGAAUUUUCGGCGGAUGCCUCGAAA, for which the “self-cleavage kobs at 40 uM GlcN6P” value in data set [1] was found to be 6.56e-05 ± 7.6e-06 s⁻¹. The “self-cleavage kobs at 640 uM GlcN6P” value in data set [2] was found to be 0.000313 ± 4.5e-05 s⁻¹. Further, the “self-cleavage kobs at 160 uM GlcN6P” value in data set [3] stood at 0.00019 ± 2.6e-05 s⁻¹. In addition, the “self-cleavage kobs at 2500 uM GlcN6P” value in data set [4] came to 0.000215 ± 3.4e-05 s⁻¹. Besides, in data set [5], the “self-cleavage kobs at 10000 uM GlcN6P” value came out at 0.000726 ± 0.0001 s⁻¹.
Consider AUAAAAGCGCCAGAAGUACAGAAAUGUAGUUGACGAGUAGGAGGUUUAUCGAAUUUUCCGCGGACGCCUCCAAA, for which the “self-cleavage kobs at 40 uM GlcN6P” value in data set [1] was below 1e-05 s⁻¹.
Still for that read-out and setting: in the case of AUAAAAGCGCCAGAAUUACAGAAAUGUAGUUCACGAGGAGGAGGUUUAUCGAAUUUUCGGCGGAUGCCUCCAAA it was below 1e-05 s⁻¹; in that of AUAAAAGCGCCAGAAUUACAGAAAUGUAGUUGACGAGGAGGAGGUUUAUCGACUUUUCGGCGGAUGCCUCCAAA, 0.000147 ± 2.2e-05 s⁻¹; in that of AUAAAAGCGCCAGAAGUACAGAAAUGUAGUUGACGAGGAAGAGGUUUAUCGAGUUUUCGGCGGAUGCUUCCAAA, below 1e-05 s⁻¹.
AUAAAAGCGCCAGAAGUACAGAAAUGUAGGUGACGAGGAGGAGGUUUAUCGAAUUUUCGGGGGAUGCCUCCAAA: the “self-cleavage kobs at 40 uM GlcN6P” value in data set [1] is below 1e-05 s⁻¹. The “self-cleavage kobs at 10000 uM GlcN6P” value in data set [5] is below 1e-05 s⁻¹.
Turning to AUAAAAGCGCCAGAAUUACAGAAAUGUAGUUGACGAGGAGGUGGUUUAUCGAAUUUUCGGCAGAUGACUCCAAA, the “self-cleavage kobs at 40 uM GlcN6P” value in data set [1] is below 1e-05 s⁻¹. In data set [5], the “self-cleavage kobs at 10000 uM GlcN6P” value was below 1e-05 s⁻¹.
Regarding AUAAAAGCGCCAGAAGUACAGAAAUGUAGUUGACGAGGAGGAGGUUUAUCGAAUUUUCGGCGGAUGCCCCCAAA, in data set [1], the “self-cleavage kobs at 40 uM GlcN6P” value came out at 5.13e-05 ± 2e-05 s⁻¹. The “self-cleavage kobs at 10000 uM GlcN6P” value in data set [5] stood at 0.000195 ± 5.5e-05 s⁻¹.
The matching figures for AUAAAAGCGCCAGAAGUACAGAAAUGUAGUUGACGAGGAGGAGUUUCAUCGCAUUGUCGGCGGAUGCCUCCAAA: below 1e-05 s⁻¹ and below 1e-05 s⁻¹.
As to AUAAAAGCGCCAGAAUUACAGAAAUGUAGUUGACGAGGAGGAGCUUUAUCGAAUUUUCGGCGGAUGCCUCCAAA, the “self-cleavage kobs at 40 uM GlcN6P” value in data set [1] was below 1e-05 s⁻¹.
Turning to AUAAAAGCGCCAGAAUUACAGAAAUGUAGUUGAAGAGGUGGAGGUUUAUCGUAUUUUCGGCGGAUGCCUACAAA, the “self-cleavage kobs at 40 uM GlcN6P” value in data set [1] was below 1e-05 s⁻¹. Further, the “self-cleavage kobs at 640 uM GlcN6P” value in data set [2] was below 1e-05 s⁻¹.
As for AUAAAAGCGCCAGAAGUACAGAAAUGUAGCUGACGAGGAGGAGGUUUAUCGAAUUUUCGGCGGAUGACUCCAAA, the “self-cleavage kobs at 40 uM GlcN6P” value in data set [1] is below 1e-05 s⁻¹.

Values taken from the supplement of paper PMC7125110.
